Measured values as given in PMC5892938.
The other results are listed elsewhere or left out. At the low end of the ranking the order means little.
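Also: DESeq read counts versus GST-SBP nonspecific binding control pulldown.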

The sequences below were run against GST-SBP-SLBP (stem-loop binding protein) (UniProt Q14493) (assay: targeted RNA Bind-n-Seq). Settings: RBNS binding buffer: 25 mM Tris pH 7.5, 150 mM KCl, 3 mM MgCl2, 0.1% Tween, 0.5 mg/mL BSA, 1 mM DTT; 27 nM protein, 750 pM RNA pool; temperature not stated; high values mean tight binding.
In the case of “GGUCACGUCUCAAUCAACUCCUAAGAGGGGGGGAAAACCCCUUUGCCCUCCAUUUCAACAGCUCGCAGUCAAG”, the binding signal (log2 fold change) was 0.0356.
For “GGUCACGUCUCAAUCAACUCUUCUCCCAGGGAAAACCCUGGUUAAUUCAACAGCUCGCAGUCAAG”, the binding signal (log2 fold change) was -0.136.
Sequence “GGUCACGUCUCAAUCAACUCAAUCCCAGGAGUUUGCUCCUGCAUUUUCAACAGCUCGCAGUCAAG” has a binding signal (log2 fold change) of 0.0927.
With “GGUCACGUCUCAAUCAACUCUACUCCCAGGGAAAUCCCUGGUUAUCUCAACAGCUCGCAGUCAAG” the binding signal (log2 fold change) was -0.0719.
“GGUCACGUCUCAAUCAACUCUUCUUCCAGGGAAACCCCUGGUAUUCUCAACAGCUCGCAGUCAAG” was tested, and the binding signal (log2 fold change) was -0.244.
“GGUCACGUCUCAAUCAACUCAAUCCCCAGGGAAAUCCCUGGUAUUUUCAACAGCUCGCAGUCAAG” gave a binding signal (log2 fold change) of -0.191.
“GGUCACGUCUCAAUCAACUCAAUCUCCAGGGAAACCCCUGGUAUUUUCAACAGCUCGCAGUCAAG” showed a binding signal (log2 fold change) of -0.269.
For “GGUCACGUCUCAAUCAACUCUUCGUCCAGGGAAAGCCCUGGCUUAUUCAACAGCUCGCAGUCAAG”, the binding signal (log2 fold change) was -0.152.
With “GGUCACGUCUCAAUCAACUCCAAAGAGGGGGGGAAAACCCCUUUACCCUCGUUAUCAACAGCUCGCAGUCAAG” the binding signal (log2 fold change) was -0.227.
Sequence “GGUCACGUCUCAAUCAACUCCCACGAGGGGGGGAAAACCCCUUUACCCUCCAUUUCAACAGCUCGCAGUCAAG” has a binding signal (log2 fold change) of -0.181.
“GGUCACGUCUCAAUCAACUCAUUCUCAGGAGUUUACUCCUGUUAUCUCAACAGCUCGCAGUCAAG” was tested, and the binding signal (log2 fold change) was -0.0746.
“GGUCACGUCUCAAUCAACUCAUCUUCAGGAGUUUCCUCCUGCAAAUUCAACAGCUCGCAGUCAAG” gave a binding signal (log2 fold change) of 0.0445.
“GGUCACGUCUCAAUCAACUCAUCCGCAGGAGUUUUCUCCUGGUAUCUCAACAGCUCGCAGUCAAG” was tested, and the binding signal (log2 fold change) was 0.102.
For “GGUCACGUCUCAAUCAACUCAAUCUCAGGAGUUUGCUCCUGCAAUGUCAACAGCUCGCAGUCAAG”, the binding signal (log2 fold change) was 0.215.
“GGUCACGUCUCAAUCAACUCUUCGCCAGGAGUUUUCUCCUGUUAUCUCAACAGCUCGCAGUCAAG” was tested, and the binding signal (log2 fold change) was -0.0843.
Work on “GGUCACGUCUCAAUCAACUCUAUCUCCAGGGAAAUCCCUGGCAAUCUCAACAGCUCGCAGUCAAG” yielded a binding signal (log2 fold change) of -0.189.
With “GGUCACGUCUCAAUCAACUCUUUCCCCAGGGAAACCCCUGGUAUACUCAACAGCUCGCAGUCAAG” the binding signal (log2 fold change) was -0.132.
In the case of “GGUCACGUCUCAAUCAACUCUCUAGAGGGGGGGAAAACCCCUUUACCCUCACACUCAACAGCUCGCAGUCAAG”, the binding signal (log2 fold change) was -0.3.
In the case of “GGUCACGUCUCAAUCAACUCUAUUCCCAGGGAAACCCCUGGCAUUCUCAACAGCUCGCAGUCAAG”, the binding signal (log2 fold change) was -0.255.
“GGUCACGUCUCAAUCAACUCUUUUUCCAGGGAAAUCCCUGGCUUUUUCAACAGCUCGCAGUCAAG” showed a binding signal (log2 fold change) of 0.0417.
For “GGUCACGUCUCAAUCAACUCAUCGCCAGGAGUUUGCUCCUGCUUUUUCAACAGCUCGCAGUCAAG”, the binding signal (log2 fold change) was -0.142.
For “GGUCACGUCUCAAUCAACUCUACUCCCAGGGAAACCCCUGGCUUUCUCAACAGCUCGCAGUCAAG”, the binding signal (log2 fold change) was 0.191.
In the case of “GGUCACGUCUCAAUCAACUCAUCUCCCAGGGAAAUCCCUGGCUUACUCAACAGCUCGCAGUCAAG”, the binding signal (log2 fold change) was -0.332.
Work on “GGUCACGUCUCAAUCAACUCAUCGUCCAGGGAAAUCCCUGGUAAUUUCAACAGCUCGCAGUCAAG” yielded a binding signal (log2 fold change) of 0.0193.
In the case of “GGUCACGUCUCAAUCAACUCAUUAGAGGGGGGGAAAACCCCUUUACCCUCCCAAUCAACAGCUCGCAGUCAAG”, the binding signal (log2 fold change) was -0.238.
Work on “GGUCACGUCUCAAUCAACUCAGUCUCCAGGGAAACCCCUGGCUUUCUCAACAGCUCGCAGUCAAG” yielded a binding signal (log2 fold change) of -0.328.
“GGUCACGUCUCAAUCAACUCAUCCCCAGGAGUUUGCUCCUGUAAUCUCAACAGCUCGCAGUCAAG” gave a binding signal (log2 fold change) of 0.242.
For “GGUCACGUCUCAAUCAACUCAUCGCCAGGAGUUUACUCCUGUAUUCUCAACAGCUCGCAGUCAAG”, the binding signal (log2 fold change) was 0.0949.
“GGUCACGUCUCAAUCAACUCUUAAGAGGGGGGGAAAACCCCUUUGCCCUCAAUAUCAACAGCUCGCAGUCAAG” gave a binding signal (log2 fold change) of -0.235.
“GGUCACGUCUCAAUCAACUCAGUUUCCAGGGAAAACCCUGGUUUAUUCAACAGCUCGCAGUCAAG” showed a binding signal (log2 fold change) of -0.0345.
“GGUCACGUCUCAAUCAACUCAACUCCAGGAGUUUGCUCCUGUAUACUCAACAGCUCGCAGUCAAG” showed a binding signal (log2 fold change) of 0.238.
With “GGUCACGUCUCAAUCAACUCUUCCUCCAGGGAAACCCCUGGCAAUUUCAACAGCUCGCAGUCAAG” the binding signal (log2 fold change) was 0.161.
Sequence “GGUCACGUCUCAAUCAACUCAUCCCCCAGGGAAACCCCUGGCUUAUUCAACAGCUCGCAGUCAAG” has a binding signal (log2 fold change) of 0.00126.
Sequence “GGUCACGUCUCAAUCAACUCUAUGUCAGGAGUUUACUCCUGUUAAUUCAACAGCUCGCAGUCAAG” has a binding signal (log2 fold change) of 0.0399.
With “GGUCACGUCUCAAUCAACUCAUUCCCCAGGGAAAGCCCUGGCUAAUUCAACAGCUCGCAGUCAAG” the binding signal (log2 fold change) was -0.318.
Work on “GGUCACGUCUCAAUCAACUCCAUCGAGGGGGGGAAAACCCCUUUACCCUCUAAAUCAACAGCUCGCAGUCAAG” yielded a binding signal (log2 fold change) of -0.927.
Sequence “GGUCACGUCUCAAUCAACUCUAUUUCCAGGGAAAACCCUGGUAUACUCAACAGCUCGCAGUCAAG” has a binding signal (log2 fold change) of 0.197.
Sequence “GGUCACGUCUCAAUCAACUCUAUCCCAGGAGUUUACUCCUGUAUUUUCAACAGCUCGCAGUCAAG” has a binding signal (log2 fold change) of -0.144.
With “GGUCACGUCUCAAUCAACUCAAUAGAGGGGGGGAAAACCCCUUUACCCUCACACUCAACAGCUCGCAGUCAAG” the binding signal (log2 fold change) was -0.278.
With “GGUCACGUCUCAAUCAACUCUUUUUCCAGGGAAAGCCCUGGUAAUCUCAACAGCUCGCAGUCAAG” the binding signal (log2 fold change) was -0.0749.
In the case of “GGUCACGUCUCAAUCAACUCAUAGGAGGGGGGGAAAACCCCUUUACCCUCAACUUCAACAGCUCGCAGUCAAG”, the binding signal (log2 fold change) was 0.451.
Sequence “GGUCACGUCUCAAUCAACUCUUCUCCAGGAGUUUUCUCCUGCAAACUCAACAGCUCGCAGUCAAG” has a binding signal (log2 fold change) of 0.154.
“GGUCACGUCUCAAUCAACUCUAUUCCCAGGGAAAACCCUGGUUAACUCAACAGCUCGCAGUCAAG” was tested, and the binding signal (log2 fold change) was 0.153.
With “GGUCACGUCUCAAUCAACUCUUCCUCAGGAGUUUACUCCUGCUUUCUCAACAGCUCGCAGUCAAG” the binding signal (log2 fold change) was 0.0936.
Sequence “GGUCACGUCUCAAUCAACUCCAUAGAGGGGGGGAAAACCCCUUUACCCUCCAUUUCAACAGCUCGCAGUCAAG” has a binding signal (log2 fold change) of -0.0593.
Sequence “GGUCACGUCUCAAUCAACUCAAAAGAGGGGGGGAAAACCCCUUUGCCCUCGUAUUCAACAGCUCGCAGUCAAG” has a binding signal (log2 fold change) of -0.0764.
In the case of “GGUCACGUCUCAAUCAACUCCAUCGAGGGGGGGAAAACCCCUUUACCCUCACAAUCAACAGCUCGCAGUCAAG”, the binding signal (log2 fold change) was -0.0376.
Sequence “GGUCACGUCUCAAUCAACUCUCUAGAGGGGGGGAAAACCCCUUUACCCUCAUCUUCAACAGCUCGCAGUCAAG” has a binding signal (log2 fold change) of -0.0105.
“GGUCACGUCUCAAUCAACUCAGUUCCCAGGGAAACCCCUGGCAUAUUCAACAGCUCGCAGUCAAG” showed a binding signal (log2 fold change) of -0.164.
For “GGUCACGUCUCAAUCAACUCAACAGAGGGGGGGAAAACCCCUUUACCCUCACACUCAACAGCUCGCAGUCAAG”, the binding signal (log2 fold change) was -0.0691.
“GGUCACGUCUCAAUCAACUCAUUCGCAGGAGUUUCCUCCUGGUAUUUCAACAGCUCGCAGUCAAG” was tested, and the binding signal (log2 fold change) was -0.00859.
“GGUCACGUCUCAAUCAACUCAAUUCCCAGGGAAACCCCUGGUUUACUCAACAGCUCGCAGUCAAG” showed a binding signal (log2 fold change) of 0.184.
In the case of “GGUCACGUCUCAAUCAACUCAGUCUCAGGAGUUUCCUCCUGCAUAUUCAACAGCUCGCAGUCAAG”, the binding signal (log2 fold change) was -0.108.
“GGUCACGUCUCAAUCAACUCCCUAGAGGGGGGGAAAACCCCUUUACCCUCGUCCUCAACAGCUCGCAGUCAAG” showed a binding signal (log2 fold change) of -0.186.
“GGUCACGUCUCAAUCAACUCAUAAGAGGGGGGGAAAACCCCUUUGCCCUCACCGUCAACAGCUCGCAGUCAAG” gave a binding signal (log2 fold change) of 0.0521.
“GGUCACGUCUCAAUCAACUCUUCCUCCAGGGAAAACCCUGGCUAAUUCAACAGCUCGCAGUCAAG” showed a binding signal (log2 fold change) of -0.238.
For “GGUCACGUCUCAAUCAACUCAUCCCCCAGGGAAAGCCCUGGUAAUCUCAACAGCUCGCAGUCAAG”, the binding signal (log2 fold change) was -0.0013.
Sequence “GGUCACGUCUCAAUCAACUCUUCCCCAGGAGUUUACUCCUGUAUUUUCAACAGCUCGCAGUCAAG” has a binding signal (log2 fold change) of 0.137.
For “GGUCACGUCUCAAUCAACUCUUUUUCCAGGGAAAUCCCUGGUUUUUUCAACAGCUCGCAGUCAAG”, the binding signal (log2 fold change) was -0.223.
“GGUCACGUCUCAAUCAACUCUUCUUCAGGAGUUUACUCCUGUUUAUUCAACAGCUCGCAGUCAAG” gave a binding signal (log2 fold change) of 0.114.
Sequence “GGUCACGUCUCAAUCAACUCCACAGAGGGGGGGAAAACCCCUUUACCCUCACAAUCAACAGCUCGCAGUCAAG” has a binding signal (log2 fold change) of -0.386.
“GGUCACGUCUCAAUCAACUCAACUUCCAGGGAAAACCCUGGUAAUUUCAACAGCUCGCAGUCAAG” showed a binding signal (log2 fold change) of -0.208.
In the case of “GGUCACGUCUCAAUCAACUCAGUUUCAGGAGUUUACUCCUGUUUAUUCAACAGCUCGCAGUCAAG”, the binding signal (log2 fold change) was -0.0883.
“GGUCACGUCUCAAUCAACUCUCUAGAGGGGGGGAAAACCCCUUUGCCCUCAAUAUCAACAGCUCGCAGUCAAG” gave a binding signal (log2 fold change) of -0.438.
With “GGUCACGUCUCAAUCAACUCUUCUUCAGGAGUUUUCUCCUGCUUUGUCAACAGCUCGCAGUCAAG” the binding signal (log2 fold change) was -0.23.
Sequence “GGUCACGUCUCAAUCAACUCUACUCCCAGGGAAAGCCCUGGUAUAUUCAACAGCUCGCAGUCAAG” has a binding signal (log2 fold change) of 0.0485.
Sequence “GGUCACGUCUCAAUCAACUCAUCUCCCAGGGAAAGCCCUGGUUUACUCAACAGCUCGCAGUCAAG” has a binding signal (log2 fold change) of 0.0465.
In the case of “GGUCACGUCUCAAUCAACUCAUCGGCCAGGGAAAACCCUGGGAAAUUCAACAGCUCGCAGUCAAG”, the binding signal (log2 fold change) was -0.474.
Sequence “GGUCACGUCUCAAUCAACUCUAUUUCCAGGGAAAACCCUGGUAUUCUCAACAGCUCGCAGUCAAG” has a binding signal (log2 fold change) of -0.151.
“GGUCACGUCUCAAUCAACUCUUCCCCAGGAGUUUCCUCCUGCUUUUUCAACAGCUCGCAGUCAAG” was tested, and the binding signal (log2 fold change) was 0.181.
For “GGUCACGUCUCAAUCAACUCAUCUCCAGGAGUUUCCUCCUGCAUUUUCAACAGCUCGCAGUCAAG”, the binding signal (log2 fold change) was 0.0373.
For “GGUCACGUCUCAAUCAACUCAACUCCCAGGGAAAACCCUGGUUAACUCAACAGCUCGCAGUCAAG”, the binding signal (log2 fold change) was 0.03.
In the case of “GGUCACGUCUCAAUCAACUCAUCGCCAGGAGUUUCCUCCUGUAUACUCAACAGCUCGCAGUCAAG”, the binding signal (log2 fold change) was 0.091.
Sequence “GGUCACGUCUCAAUCAACUCAUUCCCCAGGGAAACCCCUGGCUAACUCAACAGCUCGCAGUCAAG” has a binding signal (log2 fold change) of 0.341.
